Measurements reported in PubChem BioAssay AID463173 (ICCB-Longwood Screening Facility, Harvard Medical School, 2010).
Screen size: about 52,000 compounds; about 1,700 (3.3%) were called active. No stated cut-off is given here; in the data, active means survival mostly below about 52% (no sharp cut-off); inactive means mostly above about 56%. Some of the results follow.

test system: Wild type; experiment: growth inhibition of S. aureus wild type versus tarO mutant, primary screen, teichoic acid synthesis inhibitors, RN4220, OD600 (AID 463173); settings: S. aureus RN4220 wild type/DeltatarO growth, OD600, 18 h, active compounds read low, screened at 18.75 µg/mL (by protocol)

| Compound | survival |
| --- | --- |
| Cc1cc(C)cc(NC(=O)C(=O)NCC(c2ccc3c(c2)OCO3)N2CCOCC2)c1 (configuration not stated) | inactive: 94% |
| COCCN1Cc2cccc(C(=O)Nc3ccc(C)c(F)c3)c2C1=O | inactive: 77% |
| COc1ccc(Nc2nc3c(S(=O)(=O)c4ccccc4)nnn3c3ccc(Cl)cc23)c(OC)c1 | inactive: 116% |
| Fc1ccc(-c2cc(-c3nc(-c4ccccc4)no3)[nH]n2)cc1 | inactive: 75% |
| CC(C)c1ccc(NC(=O)c2cn(C3CCCCC3)c(=O)c3c2c2ccccc2n3C)cc1 | inactive: 86% |
| Cc1ccccc1CNC(=O)c1cccc(NC(=O)c2nsc3ccccc23)c1 | inactive: 51% |
| COc1ccc(-c2nc(C)c(CCNC(=O)c3ccc(F)c(F)c3)s2)cc1 | inactive: 71% |
| Cc1ccccc1NC(=O)N1CCc2cc(S(=O)(=O)N3CCC(C)CC3)ccc21 | inactive: 82% |
| CCCC(=O)Nc1ccc2nc(SCC(=O)N3CCCC3)sc2c1 | inactive: 111% |
| CC(C)Cn1cc(NC(=O)NCc2ccccc2)c2ccccc2c1=O | inactive: 83% |
| CC(C)OC(=O)CSc1nc2cccnc2n1C1CCCCC1 | inactive: 102% |
| Cc1ccc2c(c1)c1c(c(=O)n(-c3cccc(Cl)c3)c(=O)n1CC(=O)c1ccc(Cl)cc1)n2C | inactive: 131% |
| Cc1nc2nc(SCC(=O)Nc3cccc(Cl)c3)nn2c(C)c1Cc1ccccc1 | inactive: 80% |
| COc1ccccc1C1=NS(=O)(=O)N(C)C(C(=O)Nc2cc(OC)c(OC)c(OC)c2)=C1 | inactive: 85% |
| COc1ccc(N2C(=O)CSC23C(=O)N(Cc2ccccc2F)c2ccccc23)cc1Cl (configuration not stated) | inactive: 68% |
| O=S(=O)(NCc1ccccc1Cl)c1ccc(-c2cnc(C3CC3)o2)cc1 | inactive: 75% |
| CCC1=Nc2cc(C(=O)NCc3ccccc3OC)ccc2Sc2ccc(Cl)cc21 | inactive: 78% |
| Cc1c(CC(=O)N2CCCCC2)c(=O)oc2cc3occ(C(C)(C)C)c3cc12 | inactive: 83% |
| COc1ccc(-c2cn3cccnc3n2)cc1NC(=O)COc1ccccc1 | inactive: 84% |

| Compound | survival |
| --- | --- |
| O=C(CSc1ccccc1)Nc1c[nH]c(=O)[nH]c1=O | inactive: 101% |
| CC(=O)N(Cc1cc2cc(C)ccc2[nH]c1=O)C1CCCC1 | inactive: 117% |
| CC1(C2CCC3C4CCC5CC6(C/C(=N\O)C5(C)C4C(O)CC32C)OCCO6)OCCO1 (configuration not stated) | inactive: 99% |
| COCCNc1ncnc2c1cnn2-c1cc(Cl)ccc1C | inactive: 84% |
| Cc1cc(C)c2c(n1)SCC(=O)N2CC(=O)Nc1ccc(C)c(C)c1 | inactive: 123% |
| CN1CCN(C(c2ccc(Cl)cc2Cl)c2sc3nc(-c4ccco4)nn3c2O)CC1 (configuration not stated) | inactive: 81% |
| Cn1nc(C(=O)NCc2cccc(Cl)c2)c2c1-c1ccccc1SC2 | inactive: 81% |
| CCC(=O)N1c2ccccc2CC1C(=O)NCCc1ccccc1Cl (configuration not stated) | inactive: 135% |
| Cc1ccc(S(=O)(=O)C2(C(=O)Nc3ccc(C)c(Cl)c3)CC2)cc1 | active: 4% |
| Cc1ccc(OCC(=O)Nc2ccc(OCc3cc(=O)n4ccsc4n3)cc2)cc1 | inactive: 89% |
| CC(C)(C)C(=O)NC1(C(F)(F)F)NC(=O)N(c2ccc(F)cc2)C1=O (configuration not stated) | inactive: 68% |
| COc1ccc(N2CCN(c3ncnc4c3cnn4-c3ccc(C)c(Cl)c3)CC2)cc1 | inactive: 80% |
| Cc1ccc(Cl)cc1N1CCN(C(=O)CN2C(=O)COc3ccc(S(=O)(=O)N4CCC(C)CC4)cc32)CC1 | inactive: 79% |
| Cc1ccc(CNC(=O)CCS(=O)(=O)c2cc3c(cc2Cl)NC(=O)CO3)cc1 | inactive: 88% |
| COc1ccc(N2CCN(CC(O)COc3ccc(C)cc3C)CC2)cc1 (configuration not stated) | inactive: 87% |
| CC1=C(c2ccc(C)cc2)S(=O)(=O)NC1=NCCCN1CCN(c2cc(C)ccc2C)CC1 | inactive: 120% |
| O=C(NCc1ccc(Cl)cc1)c1ccc(NC(=O)N2CC3CCCN3c3ccccc32)cc1 (configuration not stated) | inactive: 83% |
| CCOC(=O)CN(Cc1ccccc1)C(C(=O)NC1CCCCC1)c1ccc(C)cc1 (configuration not stated) | active: -2% |
| CCOC(=O)C1CCN(C(=O)Cn2c(-c3cccs3)cc3cc(Cl)ccc32)CC1 | inactive: 74% |

| Compound | survival |
| --- | --- |
| COc1ccc(CNC(=O)c2ccc(-c3nc(CSc4ccc(C)cc4)c(C)o3)cc2)cc1OC | active: -3% |
| Cc1nn(C(=O)c2ccccc2)c(C)c1S(=O)(=O)N1CCOCC1 | inactive: 83% |
| CCC(=O)N1CCc2cc(S(=O)(=O)NC(C(=O)NCc3ccccc3Cl)C(C)C)ccc21 (configuration not stated) | inactive: 84% |
| Cc1c(C(=O)NCc2ccccc2Cl)sc2nc(-c3ccc(F)cc3)cn12 | inactive: 86% |
| O=C(NCc1ccc(F)cc1)c1cc(Sc2ccc(F)cc2F)nc2ccccc12 | inactive: 73% |
| CCOc1ccccc1CNS(=O)(=O)c1ccc2c(c1)C(C)(C)C(=O)N2C | inactive: 119% |
| NC(N)=NC(=O)c1ccc(N)cc1 | inactive: 112% |
| Cc1ccc(C)c(NS(=O)(=O)c2ccc3oc(=O)c4ncn(C)c4c3c2)c1 | inactive: 72% |
| CCn1c(=O)c2sccc2n2c(CCC(=O)Nc3ccc(C(C)C)cc3)nnc12 | inactive: 72% |
| Cc1ccc(N(C)C(=O)C2CCN(S(=O)(=O)c3cn(C)cn3)CC2)cc1 | active: 10% |
| CCn1c(=O)c2cc(C(=O)NCCc3ccc(Cl)cc3)sc2c2ccccc21 | inactive: 79% |
| CCc1nnc(SC(CC)C(=O)Nc2cc(C)ccc2C)c2cc3occc3n12 (configuration not stated) | inactive: 85% |
| COc1ccc(OCC(=O)NC(Cc2c[nH]c3ccccc23)C(=O)O)cc1 (configuration not stated) | inactive: 77% |
| CC1CCN(CCCNC(=O)CN2C(=O)CSc3ccc(S(=O)(=O)N4CCOCC4)cc32)CC1 | inactive: 71% |
| COc1ccc(NC(=O)c2cc3c(=O)n(Cc4cccnc4)ccc3nc2C)c(OC)c1 | inactive: 88% |
| Cc1ccc(NC(=O)c2c(C)oc3ncn(CC(C)C)c(=O)c23)nc1 | inactive: 129% |
| Cc1ccc2nc3c(cc(C(=O)NCc4ccco4)c(=N)n3C(C)C)c(=O)n2c1 | inactive: 81% |
| CCSc1nc(NC(C)=O)nn1C(C)=O | inactive: 103% |
| Cc1cccc(CN2C(=O)c3ccccc3S(=O)(=O)c3ccc(C(=O)NC4CCCCC4)cc32)c1 | inactive: 91% |
